# The shares of active, inactive and inconclusive entries below differ from those in the screen. For some assays here: Potencies of inconclusive entries are doubtful fits and often do not repeat. The source holds several records for some structures; these can differ, active in one and inactive in another. Calls of active or inactive are those of the source. Unless noted, calls come from the whole dose curve; as a rule, active = well fitted curve in the direction sought with a large enough effect in the repeat runs; inconclusive = weak or mixed curves; inactive = no such curve, though single readings can be large; an effect the other way counts as inactive or inconclusive.
# Legend:
# [1] = qHTS assay to identify small molecule agonists of the sonic hedgehog signaling (Shh) pathway - cell viability counter screen (AID 1259366); note: nearly all actives have a fitted effect of over 50% in size
# Summary of the method: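 Compounds in DMSO were pin-transferred onto 3T3 Gli1-Luc cells that had settled 4hr; plates then stood 24hr at 37C and 5% CO2. One hour before the end, CellTiter-Fluor was added and fluorescence recorded.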
# [2] = qHTS assay to identify small molecule agonists of the estrogen receptor beta (ER-beta) signaling pathway - cell viability counter screen (AID 1259380); note: nearly all actives have a fitted effect of over 30% in size; for activity change, negative = cytotoxicity: % is set by controls: 0 for no effect and ±100 for the full control effect
# Summary of the method: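 Cells used were ER-beta-UAS-bla HEK293T in medium with 2% charcoal-stripped FBS. They were treated for 16 hr at 37C. Viability came from CellTiter-Glo luminescence.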
# [3] = qHTS assay to identify small molecule agonists of the sonic hedgehog signaling (Shh) pathway (AID 1259368; calls by dose curve; note: nearly all actives have a fitted effect of over 15% in size)
# Summary of the method: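 Mouse fibroblast (NIH/3T3) reporter cells with stably integrated Gli1-Luc were treated 24 hr with compound; firefly luciferase luminescence served as the read-out.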
# [4] = qHTS assay to identify small molecule antagonists of the sonic hedgehog signaling (Shh) pathway (AID 1259369; calls by dose curve; note: nearly all actives have a fitted effect of over 45% in size)
# Summary of the method: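 Conditioned medium drives Shh signalling in 3T3Gli1-Luc cells; compounds in DMSO co-applied, 24hr at 37 C, then luciferase luminescence.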
# [5] = target: Estrogen receptor beta (Homo sapiens) (UniProt Q92731); assay: qHTS assay to identify small molecule antagonists of the estrogen receptor beta (ER-beta) signaling pathway (AID 1259378; active = well fitted inhibition curve with a large enough effect in the signal ratio in the repeat runs, not every such curve was filed as active; inconclusive = weak or mixed curves, or effect the other way; inactive = no such curve, though single readings can be large or run the other way; the % refers to the signal ratio; for activity, negative = inhibition: % is set by controls: 0 for no effect and ±100 for the full control effect); conditions: ER-beta-UAS-bla HEK293T, beta-lactamase FRET ratio, 16 h; activity, negative = inhibition: at 92.4 µM (top of the series) unless noted
# Summary of the method: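 ER-beta-UAS-bla HEK293T cells in 2% charcoal-stripped FBS medium treated with compound plus 1nM final 17-beta-estradiol for 16 hr at 37C. Beta-lactamase reporter read by FRET substrate fluorescence after 2 hours at room temperature.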
# [6] = qHTS assay to identify small molecule agonists of the androgen receptor (AR) signaling pathway in the presence of an antagonist - cell viability counter screen (AID 1259379); note: nearly all actives have a fitted effect of over 25% in size;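 for activity change, negative = cytotoxicity: MDA-kb2 human breast cancer cells carrying an MMTV luciferase reporter; % is set by controls: 0 for no effect and ±100 for the full control effect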
# Summary of the method: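 A CellTiter-Fluor read-out measured viability of MDA-kb2 reporter cells (MMTV promoter with AR and GR response elements). Treatment: nilutamide 3.0uM final with compounds at 15 concentrations, 16 hr, 37C, 0% CO2.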
# [7] = qHTS assay to identify small molecule antagonists of the sonic hedgehog signaling (Shh) pathway - cell viability counter screen (AID 1259367); note: nearly all actives have a fitted effect of over 55% in size
# Summary of the method: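 NIH/3T3-derived Gli1-Luc reporter cells, 2,000/well, plated 4 hr before compound addition, then stimulated with conditioned medium for 24 hr at 37C. Viability measured in the same wells by CellTiter-Fluor fluorescence, reagent added at 23 hr for 1 hr.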
# [8] = qHTS assay to identify small molecule antagonists of the estrogen receptor beta (ER-beta) signaling pathway - cell viability counter screen (AID 1259382); note: nearly all actives have a fitted effect of over 55% in size; for activity change, negative = cytotoxicity: % is set by controls: 0 for no effect and ±100 for the full control effect
# Summary of the method: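 Agonist-stimulated (1nM E2) ER-beta-UAS-bla HEK293T cells are incubated with library compounds for 16 hr at 37C. Cell viability is then assessed in the reporter-assay wells by adding CellTiter-Glo and reading luminescence after 30 min.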
# [9] = target: Estrogen receptor beta (Homo sapiens) (UniProt Q92731); assay: qHTS assay to identify small molecule agonists of the estrogen receptor beta (ER-beta) signaling pathway (AID 1259377; active = well fitted activation curve with a large enough effect in the signal ratio in the repeat runs, not every such curve was filed as active; inconclusive = weak or mixed curves, or effect the other way; the % refers to the signal ratio); conditions: ER-beta-UAS-bla HEK293T, beta-lactamase FRET ratio, 16 h; activation: at 92.4 µM (top of the series) unless noted
# Summary of the method: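 qHTS in ER-beta-UAS-bla HEK293T cells: 6 hr settling, then 16 hr compound at 37C, then LiveBLAzer substrate 2 h at RT before fluorescence reading.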
# [10] = target: Estrogen receptor (Homo sapiens) (UniProt P03372); assay: qHTS assay to identify small molecule agonists of the estrogen receptor alpha (ER-alpha) signaling pathway in the presence of an antagonist (AID 1259383; calls by dose curve; note: nearly all actives have a fitted effect of over 15% in size)
# Summary of the method: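 Using VM7Luc4E2 cells seeded 24hr before treatment, antagonist ICI-182,780 (10.0nM final) was added, followed by compounds at 15 concentrations. Plates incubated 22hr; ONE-Glo luminescence quantified reporter activity.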
# Potency is the fitted concentration of half-maximal effect; tags give direction and shape of the fitted curve or compound fluorescence and quenching.
# UniProt Q92731, sequence (Q92731 whole entry, looked up): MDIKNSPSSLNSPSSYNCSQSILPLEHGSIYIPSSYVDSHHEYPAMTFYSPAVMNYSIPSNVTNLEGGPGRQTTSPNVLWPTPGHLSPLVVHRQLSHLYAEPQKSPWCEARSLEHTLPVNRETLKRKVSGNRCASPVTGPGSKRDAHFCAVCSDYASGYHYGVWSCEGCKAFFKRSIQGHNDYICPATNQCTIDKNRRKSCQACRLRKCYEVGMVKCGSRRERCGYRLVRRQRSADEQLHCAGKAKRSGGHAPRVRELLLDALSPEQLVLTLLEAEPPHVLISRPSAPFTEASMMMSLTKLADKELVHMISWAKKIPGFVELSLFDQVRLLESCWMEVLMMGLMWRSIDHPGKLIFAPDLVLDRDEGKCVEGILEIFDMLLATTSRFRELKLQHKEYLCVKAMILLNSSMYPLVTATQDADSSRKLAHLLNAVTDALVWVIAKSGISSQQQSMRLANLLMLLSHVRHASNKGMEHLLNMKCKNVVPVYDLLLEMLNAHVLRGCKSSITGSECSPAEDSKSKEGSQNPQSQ
# UniProt P03372, sequence (P03372 whole entry, looked up): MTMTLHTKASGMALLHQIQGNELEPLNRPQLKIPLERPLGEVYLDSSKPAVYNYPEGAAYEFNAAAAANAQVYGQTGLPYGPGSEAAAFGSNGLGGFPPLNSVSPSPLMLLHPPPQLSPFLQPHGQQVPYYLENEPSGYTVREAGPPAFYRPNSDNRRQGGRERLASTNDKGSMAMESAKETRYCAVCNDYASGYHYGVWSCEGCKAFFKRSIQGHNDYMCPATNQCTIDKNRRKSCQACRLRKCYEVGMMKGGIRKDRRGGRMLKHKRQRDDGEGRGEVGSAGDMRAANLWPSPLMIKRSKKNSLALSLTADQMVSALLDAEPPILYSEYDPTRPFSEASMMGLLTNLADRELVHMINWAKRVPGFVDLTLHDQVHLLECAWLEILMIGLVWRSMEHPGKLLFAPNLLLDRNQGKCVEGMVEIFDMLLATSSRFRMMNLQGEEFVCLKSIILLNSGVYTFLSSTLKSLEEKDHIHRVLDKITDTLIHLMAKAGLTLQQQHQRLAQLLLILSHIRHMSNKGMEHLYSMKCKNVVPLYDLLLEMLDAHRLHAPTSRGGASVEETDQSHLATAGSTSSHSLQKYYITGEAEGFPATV
structure (smiles),measurement,setting,value
CN(C)c1ccc(/C=C/c2ccc([N+](=O)[O-])cc2)cc1,Potency,[1],"inconclusive: 0.437 µM [rising, full curve]"
same,"activity change, negative = cytotoxicity",[2],inactive: -2.6% [at 8.39 µM]
CC1(C)O[C@@H]2C[C@H]3[C@@H]4CCC5=CC(=O)CC[C@]5(C)[C@@]4(F)[C@@H](O)C[C@]3(C)[C@]2(C(=O)CCl)O1,Potency,[1],"inconclusive: 26.6 µM [rising, partial curve, poor fit]"
same,Potency,[3],active: 13.3 µM
same,Potency,[4],"inconclusive: 0.0038 µM [inhibitor, full curve, poor fit]"
same,"activity, negative = inhibition",[5],inconclusive: -43.5% [at 42.5 µM]
same,Potency,[2],"inconclusive: 26.6 µM [cytotoxic, partial curve]"
CC(C)CC(C)(O)C#CC(C)(O)CC(C)C (stereo not drawn),Potency,[1],active: 13.4 µM and inactive
same,Potency,[4],active: 9.49 µM and inactive
same,Potency,[2],"inconclusive: 75.4 µM [cytotoxic, single point]"
C[C@H](CS)C(=O)N1CCC[C@H]1C(=O)O,Potency,[1],inactive
same,Potency,[6],inactive
COC(=O)C1=C(C)NC(C)=C(C(=O)O[C@@H]2CCCN(Cc3ccccc3)C2)[C@@H]1c1cccc([N+](=O)[O-])c1,Potency,[1],"inconclusive: 26.6 µM [cytotoxic, partial curve]"
same,Potency,[7],"inconclusive: 23.7 µM [cytotoxic, partial curve]"
same,Potency,[5],active: 26.6 µM
O=C1OCCN1/N=C/c1ccc([N+](=O)[O-])o1,Potency,[1],inactive
same,Potency,[4],"inconclusive: 33.5 µM [inhibitor, single point]"
OC[C@H]1O[C@@H]2O[C@H]3[C@H](O)[C@@H](O)[C@@H](O[C@H]4[C@H](O)[C@@H](O)[C@@H](O[C@H]5[C@H](O)[C@@H](O)[C@@H](O[C@H]6[C@H](O)[C@@H](O)[C@@H](O[C@H]7[C@H](O)[C@@H](O)[C@@H](O[C@H]8[C@H](O)[C@@H](O)[C@@H](O[C@H]1[C@H](O)[C@H]2O)O[C@@H]8CO)O[C@@H]7CO)O[C@@H]6CO)O[C@@H]5CO)O[C@@H]4CO)O[C@@H]3CO,Potency,[1],inactive
same,Potency,[4],inactive
same,Potency,[8],"inconclusive: 61.3 µM [cytotoxic, partial curve]"
O=C1c2ccccc2Cc2ccccc21,Potency,[1],active: 6.91 µM
same,Potency,[7],"inconclusive: 15.5 µM [cytotoxic, partial curve]"
same,Potency,[5],inconclusive: 69.1 µM
Cc1cccc(Oc2ccccc2)c1,Potency,[6],"inconclusive: 66.8 µM [cytotoxic, single point]"
O=C(O)C1(C(=O)Nc2ccc(Cl)cc2Cl)CC1,Potency,[6],"inconclusive: 68.6 µM [cytotoxic, single point]"
Oc1cccc(O)c1,Potency,[2],"inconclusive: 0.611 µM [cytotoxic, single point]"
CCCCC(CC)COCC1CO1 (stereo not drawn),Potency,[8],inactive
c1ccc(CNCCNCc2ccccc2)cc1,Potency,[4],"inconclusive: 3.76 µM [inhibitor, full curve]"
same,Potency,[5],active: 10.6 µM
same,Potency,[6],inactive
C=CC(C)(C)C,activation,[9],inconclusive: 10.2%
COc1cc(S(N)(=O)=O)cc(C(=O)O)c1OC,Potency,[9],"inconclusive: 21.1 µM [activator, partial curve]"
CCC(C)CCCC(C)(C)O (stereo not drawn),activation,[9],inconclusive: 11.6%
c1ccncc1,Potency,[4],inactive
same,Potency,[6],inactive
O=C(O)CC(=O)O,Potency,[4],"inconclusive: 0.217 µM [inhibitor, full curve, poor fit]"
same,Potency,[5],inactive
same,Potency,[2],inactive
C/C=C(/C(=C/C)c1ccc(OC(C)=O)cc1)c1ccc(OC(C)=O)cc1,Potency,[4],active: 29.8 µM
same,Potency,[10],active: 0.0133 µM
C/C(=C\C(C)CC(C)CC(C)C)C1CC(=O)OC1=O (stereo not drawn),Potency,[4],inactive
same,"activity, negative = inhibition",[5],inconclusive: -30.2%
same,Potency,[10],inactive
C=CCOCC(CC)(CO)COCC=C,Potency,[9],inactive
CC(=O)CC/C=C(\C)CCC=C(C)C,Potency,[4],"inconclusive: 38.6 µM [inhibitor, partial curve, poor fit]"
same,Potency,[6],inactive
CC(C)Oc1ccccc1O,Potency,[4],inactive
same,Potency,[2],"inconclusive: 24.3 µM [rising, full curve, poor fit]"
CC(C)Nc1cccnc1N1CCN(C(=O)c2cc3cc(NS(C)(=O)=O)ccc3[nH]2)CC1,Potency,[4],"inconclusive: 15 µM [inhibitor, partial curve, poor fit]"
same,Potency,[8],"inconclusive: 13.3 µM [cytotoxic, partial curve, poor fit]"
O=C=Nc1ccc(Cc2ccc(N=C=O)cc2)cc1,Potency,[4],"inconclusive: 23.9 µM [inhibitor, full curve, poor fit]"
same,Potency,[5],inactive
same,Potency,[2],"inconclusive: 3.79 µM [cytotoxic, full curve]"

# From PubChem BioAssay (Tox21)
